# Test results: article PMC5515408
# This is one part of the list. At the low end of the ranking the order means little.
# System: MYC (p64) + MAX (p21), in MYC:MAX
# Assay: protein-binding microarray (anti-MAX antibody)
# Conditions: PBM: 15 mM Tris-HCl pH 7.5, 100 mM KCl, 0.075% NP40, 7.5 mM beta-mercaptoethanol, 375 ng/ul BSA, 8 ng/ul poly(dA-dT):(dA-dT), 550 ng complex, 60 min, room …; high values mean tight binding; double strand, one strand shown; sequences stand for … in CCGGC…TTAATAGCTAAGATTACTATATCGACG
row,Sequence,binding signal (log2 normalized fluorescence)
1,TGATATCCTGTA,-0.145
2,TGAATTGGCGTA,-0.0447
3,TGAGAACTCGTA,0.0801
4,TGACGCAAGGTA,0.403
5,TGACGATTAGTA,-0.114
6,TGATCGGGTGTA,-0.0626
7,AGACACATGGTA,0.834
8,TGACAATGTGTA,0.306
9,TGAGGAGAGGTA,-0.114
10,TGGCCCGGGGTA,-0.135
11,TGACGAGCGGTA,0.129
12,TGAACGGTTGTA,0.123
13,TGAGGAACGGTA,0.0489
14,TGAAAAGGTGTA,-0.0366
15,TGATATTCCGTA,-0.277
16,TGACCACGAGTA,0.396
17,TGACGGGTCGTA,-0.0876
18,TGACTACACGTA,0.312
19,TGATGTGTAGTA,0.146
20,TGAGTTCTCGTA,-0.0697
21,TGAGCCAAGGTA,-0.0677
22,TGACTACGGGTA,0.0808
23,TGACACCGAGTA,0.235

row,Sequence,binding signal (log2 normalized fluorescence)
1,TGACGGAGTGTA,0.165
2,TGGGCACCCATT,0.0703
3,TGAGGCCCCGTA,0.00137
4,TGACACGTGTGT,0.7
5,TGAACGGTAGTA,-0.0533
6,AATACAGCTTAC,0.307
7,TGACAACACGTA,0.272
8,TGACGACTCGTA,0.0913
9,TGAGCCACCGTA,0.0224
10,TGACGCAAAGTA,-0.0251
11,TGACACGTGCAC,0.88
12,TGACACGCCCTA,0.532
13,TGACGTTGCGTA,0.0681
14,TGAATGGAAGTA,0.124
15,TGATTCAAGGTA,0.0939
16,TGATTTCGAGTA,-0.12
17,TGAGTAGCCGTA,-0.168
18,TGAAGAGACGTA,0.0477
19,TGAGGAGGGGTA,0.563
20,TGAATTCAAGTA,-0.0366
21,TGAATGGGTGTA,0.184
22,TGACTCCTGATA,0.0186
23,TGAAAATTAGTA,-0.172

row,Sequence,binding signal (log2 normalized fluorescence)
1,TGACTACTCGTA,0.137
2,TGACGGGGTGTA,0.469
3,TGAATTTGGGTA,-0.119
4,TGATGTACAGTA,0.152
5,TGACTGTCCGTA,0.0679
6,TGATTTATTGTA,-0.188
7,TGACGGTCAGTA,-0.0768
8,TGCAACGTGGTA,0.701
9,TGACAACCTGTA,0.243
10,TGACGTGTCGTA,0.274
11,TGAATGCCAGTA,0.189
12,TGAGCGCCGGTA,0.021
13,TGACTCGTAGTG,-0.0654
14,TGACCCCACGTA,0.193
15,TGACACTTGCTG,0.248
16,TGACATTGGGTA,0.339
17,TGAGTGTTAGTA,0.177
18,TGACGCTAGGTA,0.0464
19,TGATGACTCGTA,0.153
20,TGACCCAACGTA,0.253
21,TGACACGTGTTG,0.83
22,TGACACATGGAA,0.739
23,TGATTACTAGTA,-0.0547

row,Sequence,binding signal (log2 normalized fluorescence)
1,CCTGTGCTGAGC,0.268
2,TGACGAGGGGTA,0.262
3,TGAATGCGCGTA,0.29
4,TGAAGCTCGGTA,0.0311
5,TGAGTCAGGGTA,-0.143
6,TGAACCGTTGTA,0.0326
7,TGAATAGGCGTA,-0.0708
8,TGACCCCGAGTA,0.209
9,TGAAAGTGCGTA,0.349
10,TGACTTGGGGTA,0.0955
11,TGAGTGCCCGTA,0.154
12,TGACACGTGATC,0.744
13,TGACACGTGTAA,0.708
14,TGATTCTCCGTA,-0.172
15,TGACTTAAAGTA,0.0159
16,TGTCACGTGGAA,0.766
17,TGACACGAGGCG,0.566
18,TGAGACGATGTA,-0.0304
19,TGATTGGCTGTA,-0.261
20,TGAATGTAGGTA,0.115
21,TGAGCTAAAGTA,-0.0842
22,TGAAGCAGGGTA,0.0399
23,TGACCACAAGTA,0.407

row,Sequence,binding signal (log2 normalized fluorescence)
1,TGAGCGACTGTA,0.116
2,TGACACGTATGA,0.343
3,TGATGTCTCGTA,0.169
4,TGACGTCCAGTA,0.172
5,TGACGCGTGGTA,0.398
6,TGAAAAGTGGTA,0.0228
7,TGATCATGCGTA,0.415
8,TGACAGTTTGTA,0.0712
9,TGAGCGATAGTA,-0.0333
10,TGAATTTCTGTA,-0.0074
11,TGATGAGTGGTA,0.165
12,TGATTCCAGGTA,0.0199
13,TGAAGACTTGTA,0.00922
14,TGACAGAGTGTA,0.254
15,TGATAGACAGTA,0.0938
16,TGAGTCCAAGTA,-0.077
17,TGAAGTGTTGTA,0.108
18,ACTTATAGATTT,0.0214
19,TGAGGTCTCGTA,0.0819
20,TGACATTAAGTA,0.0899
21,TGAATCCCGGTA,-0.0316
22,TGAAGAACTGTA,0.104
23,TGAGTCCGCGTA,0.0725

row,Sequence,binding signal (log2 normalized fluorescence)
1,TGAGTAAAAGTA,-0.207
2,TGAGCAGCTGTA,0.134
3,TGAGCTGGGGTA,0.102
4,TGAACGCGAGTA,0.27
5,TGAGCCGTGGTA,0.133
6,TGAGTTAATGTA,-0.0995
7,TGATGCAGAGTA,0.0296
8,TGAAGCGGCGTA,0.0733
9,TGATACGTCGTA,0.0297
10,TGAGTAGAGGTA,-0.202
11,TGTAACGTGGTA,0.561
12,TGAGGGTTAGTA,0.0301
13,TATTACGTGGTA,0.323
14,TGAAGTAGCGTA,0.0615
15,AGACGGGAGGTT,0.196
16,TGACAAGTTGTA,0.0647
17,TGACCGGTCGTA,0.187
18,TGACGGGTGGTA,0.25
19,TGAAGGCGTGTA,0.409
20,TGATTTGGCGTA,-0.169
21,TGATACTAAGTA,-0.00702
22,TGAGGAGCAGTA,-0.103
